The results in this text go back to paper PMC6212790.

This is one part of the list. At the low end of the ranking the order means little.

This assay has as its target T1, GST-Rok (full length) (UniProt O34857).
T1 sequence: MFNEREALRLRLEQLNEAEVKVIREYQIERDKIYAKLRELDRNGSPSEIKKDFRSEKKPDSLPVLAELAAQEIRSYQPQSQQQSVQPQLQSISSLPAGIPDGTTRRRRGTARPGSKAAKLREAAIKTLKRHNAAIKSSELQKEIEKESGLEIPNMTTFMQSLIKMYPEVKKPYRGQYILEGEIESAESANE
Kind of assay: protein binding microarray.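 Further: rank score from −0.5 (least bound) to 0.5 (best bound).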 To be noted: Rok is a gene silencer of Bacillus subtilis; high values mean tight binding; most listed sequences are background and not binding sites; double strand, one strand shown.
With ACATACCC, the binding signal was -0.0478 E-score. Sequence GACCCTGA yielded a binding signal of -0.187 E-score. The sequence ACAATCGG returned a binding signal of 0.00195 E-score.

On to CTCCGCTC, for which the binding signal was -0.179 E-score.

As for CAGATAGA, the binding signal worked out at 0.172 E-score. As to GCGACAGC, the binding signal worked out at 0.0123 E-score. As for AAACGGAG, the figure is -0.139 E-score. CCGGGATA displayed a binding signal of -0.0223 E-score.

In turn, ACGTAATG returned a binding signal of 0.283 E-score. Turning to AGGACGGC, the binding signal was -0.382 E-score. Sequence GGGTCCAA showed a binding signal of -0.437 E-score. Take CAATCAGA: the binding signal is -0.175 E-score. With GTAACGGA, the binding signal came to 0.131 E-score. AAAAAGCT: the binding signal is -0.0996 E-score. In turn, AGAGGTCC gave a binding signal of -0.347 E-score. On to AAGTGGCG, for which the binding signal was -0.151 E-score. In the case of CTTGTTTC, the binding signal came to 0.0903 E-score. As for ATTCATAC, the figure is 0.287 E-score. Consider ACCGCGAA, for which the binding signal is -0.012 E-score.

In the case of CACGACTC, the binding signal is -0.145 E-score. In turn, CGTGCACG came in with a binding signal of -0.0911 E-score. Next, ATCGGATG: -0.135 E-score. Next, ATCCCACC: -0.0759 E-score; ATACTGTC: 0.0898 E-score. For CCGACCGA, the binding signal is -0.323 E-score. The sequence CTCGTCAA gave a binding signal of -0.25 E-score. Turning to GGGACCCC, the binding signal was -0.469 E-score.

As to ACTTTCCT, the binding signal stood at 0.0212 E-score.

ACGCGCCC yielded a binding signal of -0.301 E-score. As for AATAAACT, the figure is 0.249 E-score.

On to AGCGTGTG, for which the binding signal was -0.0505 E-score.

Turning to TCGGAACA, the binding signal was -0.259 E-score. Sequence CTTTCCGC returned a binding signal of 0.0623 E-score. Regarding ACAATGAA, the binding signal came out at 0.0945 E-score. Next, ACAATTCG: 0.135 E-score; ATGCCTCG: -0.0672 E-score. Consider ACGGAGGA, for which the binding signal is -0.33 E-score.

Consider CAGCAATA, for which the binding signal turned out to be 0.234 E-score. Next, ACATAACT: 0.347 E-score. AGCTGTCA registered a binding signal of -0.0404 E-score. GGACCAAA yielded a binding signal of -0.189 E-score. In turn, AAGTTGCG gave a binding signal of 0.0909 E-score. As to AAAAGGGT, the binding signal is -0.042 E-score. As for ACCAGAAT, the figure is -0.0312 E-score; as for GCTACACC, -0.162 E-score; as for GGCTCGCA, -0.271 E-score. The sequence ACACTGTC had a binding signal of -0.0285 E-score.

Regarding ATGATCAC, the binding signal is -0.0615 E-score. As for CGCGAGTA, the figure is 0.0486 E-score; as for GGCGTTGA, -0.0967 E-score. As for CGGGAACC, the figure is -0.317 E-score; as for ATATGCCC, -0.0425 E-score; as for CATCAATC, -0.0843 E-score. Turning to CTCCAGCA, the binding signal is -0.0281 E-score.

As for AACCTTGG, the binding signal was -0.222 E-score. ATCGTTAC came in with a binding signal of -0.0072 E-score. Regarding ATTGTTGC, the binding signal came out at 0.08 E-score.

In turn, GGGGAGCA yielded a binding signal of -0.364 E-score. GCGCAAAC showed a binding signal of 0.121 E-score. The sequence AGCAAGAC had a binding signal of -0.158 E-score. Next, AAAAGGAG: -0.188 E-score; ATACTATA: 0.396 E-score. GCAGCGTA yielded a binding signal of -0.0665 E-score. Sequence ACTGGCAG yielded a binding signal of -0.148 E-score. As for AGTACTAC, the figure is 0.389 E-score. AGCCCGAG gave a binding signal of -0.276 E-score. Next, GGTCTGAA: -0.116 E-score; AAGCCCAC: -0.234 E-score; ACCTACGT: 0.16 E-score. For the sequence TCGCCCCA, the binding signal was -0.17 E-score. CGCTAGAC yielded a binding signal of -0.00499 E-score. Take CCATCCAC: the binding signal was -0.1 E-score. Take AACATATT: the binding signal worked out at 0.323 E-score. CAATCCCC gave a binding signal of -0.177 E-score. For the sequence ACCACCAC, the binding signal was -0.186 E-score. Sequence GGATTTAC showed a binding signal of 0.113 E-score. Next, AAGGCTAG: -0.041 E-score. The sequence AGTAGCAA yielded a binding signal of 0.267 E-score. As for CGTCGAGC, the figure is -0.0815 E-score; as for CGTTTCTC, -0.117 E-score.

GTCTCAAA showed a binding signal of -0.0608 E-score.

In turn, ACAGATGA gave a binding signal of -0.0766 E-score. As for CGTATCAA, the figure is -0.00638 E-score; as for TCTAAACA, -0.0459 E-score. In the case of GGTATGGA, the binding signal was -0.0226 E-score.

For ATCCTTCG, the binding signal is -0.181 E-score.

For CAAATATA, the binding signal stood at 0.345 E-score. AGCATGGG gave a binding signal of -0.198 E-score. CAGAGGAG: the binding signal was -0.287 E-score.

The sequence AATGGGAT registered a binding signal of 0.149 E-score. In the case of CAGGAGAG, the binding signal was -0.125 E-score.

AAACTAAG displayed a binding signal of 0.345 E-score. In turn, GTGGCATA returned a binding signal of -0.0853 E-score. AACTGAGA: the binding signal was -0.0736 E-score. In turn, ATCAAGCA returned a binding signal of 0.199 E-score.

Sequence GTCAAGGA came in with a binding signal of -0.181 E-score.

The sequence CCGGTGGA gave a binding signal of -0.31 E-score. Next, CCTTCTAA: -0.0239 E-score; GAACGGAA: -0.217 E-score; CTAACCAC: -0.116 E-score.

CACATTTA showed a binding signal of 0.164 E-score.

Sequence CAGACCTA gave a binding signal of 0.0139 E-score.

On to GACTACAA, for which the binding signal worked out at 0.12 E-score. Sequence ATTTTTGC returned a binding signal of 0.0142 E-score.

Turning to GGGAGACC, the binding signal was -0.404 E-score.

GGAGGCGA registered a binding signal of -0.198 E-score.

Take GCAAGGCC: the binding signal was -0.372 E-score.

As to GGATATCA, the binding signal was -0.0323 E-score. Sequence CCGCGGCG had a binding signal of -0.19 E-score.

CAGGTGCC: the binding signal is -0.304 E-score. For the sequence AGGATGAT, the binding signal was -0.0933 E-score.

AGTTGATC: the binding signal was found to be 0.0409 E-score. On to AGTTAACA, for which the binding signal was found to be 0.15 E-score.

As to CGCCTATC, the binding signal was -0.0578 E-score. The sequence CGTAGGCA gave a binding signal of -0.0851 E-score.

For CGTGATTC, the binding signal worked out at 0.0837 E-score. The sequence AGTTGCAC registered a binding signal of 0.0981 E-score.

The sequence GGAATCCA registered a binding signal of -0.0137 E-score. AGTCTCGC: the binding signal was -0.151 E-score.

As for CATGCGTC, the binding signal was -0.075 E-score. AGATCTTC registered a binding signal of -0.0496 E-score. Consider AGGGGAGA, for which the binding signal is -0.312 E-score. AGCTTAGA came in with a binding signal of -0.0759 E-score. Sequence CAACGATA displayed a binding signal of 0.242 E-score. As for AACGGAGT, the figure is -0.129 E-score. With AAGCTTTC, the binding signal is 0.0174 E-score. With AGTTTTAC, the binding signal worked out at 0.301 E-score. For TATATTCA, the binding signal turned out to be 0.3 E-score. Sequence GAGGGCAA had a binding signal of -0.298 E-score. For CGCTCCCC, the binding signal was -0.363 E-score. With GGTCTACA, the binding signal was 0.0329 E-score. Take CTCTGACA: the binding signal is -0.196 E-score. ATGCTCCC yielded a binding signal of -0.196 E-score. Sequence CGTCCCAA showed a binding signal of -0.371 E-score.

In the case of GCCCCATA, the binding signal was -0.0377 E-score. As to TACGCAAA, the binding signal worked out at 0.221 E-score. Turning to CAGAGCAC, the binding signal was -0.206 E-score. On to CGACCACG, for which the binding signal was -0.236 E-score. ACCTCTAA came in with a binding signal of -0.122 E-score. The sequence TCGGGCCA displayed a binding signal of -0.2 E-score. With ATCACAGA, the binding signal worked out at 0.0148 E-score. The sequence ACTACGTA yielded a binding signal of 0.246 E-score. For the sequence ATTCGATA, the binding signal was found to be 0.226 E-score.

On to ACGATAAT, for which the binding signal was found to be 0.153 E-score.

For AGTAAATC, the binding signal was determined as 0.262 E-score. As for ACAGACAC, the figure is 0.0119 E-score. CGCTCGTC yielded a binding signal of -0.261 E-score. Next, AACCGGAG: -0.133 E-score; CCTGTTAA: -0.1 E-score; CGAGCGCC: -0.405 E-score. The sequence CATGAGAA yielded a binding signal of 0.118 E-score.

GTTGATAA displayed a binding signal of 0.176 E-score. For the sequence ATTTATTA, the binding signal turned out to be 0.312 E-score.

As to CACAAGAG, the binding signal was -0.0957 E-score. With ATCTTGCC, the binding signal is -0.0891 E-score. As for GAATGCCC, the figure is -0.242 E-score; as for ACCCCAGA, -0.334 E-score.

In the case of TCGATCCA, the binding signal was determined as 0.00754 E-score. On to ATGACTAA, for which the binding signal was found to be 0.248 E-score.

Take AGTAAAAT: the binding signal was 0.311 E-score. With GGTGAAAC, the binding signal was -0.124 E-score.

The sequence CCCCTAAG came in with a binding signal of -0.324 E-score. CCCAGAAG yielded a binding signal of -0.223 E-score. GCGATCAC showed a binding signal of -0.0328 E-score.

As to GTACACTA, the binding signal was determined as 0.23 E-score. In turn, ACCTTCAG had a binding signal of -0.119 E-score. In turn, TCCACGGA gave a binding signal of -0.157 E-score. Take CAACCTGA: the binding signal was -0.0565 E-score.

ACTTTATG displayed a binding signal of 0.0133 E-score. As for AATTCCGG, the figure is 0.0263 E-score; as for CTCTCTGA, -0.243 E-score. As for ACCGGGCG, the figure is -0.248 E-score.
